The values that follow come from US20210155702A1 (SHANGHAI CELL THERAPY RESEARCH INSTITUTE, published 2021).

The experiment deals with T1, CD47 on the surface of cells (T cells; tumor cell lines H23, SKOV3, ASPC-1, Hgc27) (human, UniProt Q08722).
T1 construct: whole, on cells
Description: flow cytometry of T cells with murine anti-human CD47-FITC. Background: In flow cytometry, cells or beads pass a laser one at a time.

UniProt Q08722, sequence (Q08722 19-323): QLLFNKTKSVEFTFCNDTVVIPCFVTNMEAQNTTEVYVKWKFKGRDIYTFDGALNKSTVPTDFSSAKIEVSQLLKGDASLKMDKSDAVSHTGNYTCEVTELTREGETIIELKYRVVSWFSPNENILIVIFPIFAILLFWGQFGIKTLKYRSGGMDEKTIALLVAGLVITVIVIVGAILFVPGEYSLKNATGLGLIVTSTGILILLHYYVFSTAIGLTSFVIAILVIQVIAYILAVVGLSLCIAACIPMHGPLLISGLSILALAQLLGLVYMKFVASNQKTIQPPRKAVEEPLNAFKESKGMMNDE

B1: mutant CD47 antibody (light chain signal peptide-CD47 ligand-IgG4Fc) (Fc fusion)
chain: EEELQIIQPDKSVLVAAGETATLRCTITSLFPVGPIQWFRGAGPGRVLIYNQRQGPFPRVTTVSDTTKRNNMDFSIRIGNITPADAGTYYCIKFRKGSPDDVEFKSGAGTELSVRAKP[human IgG4 Fc with S228P L235E N297Q (EU numbers) cut from this listing]
notes: It was tested as secreted by the cells or as culture supernatant, not purified; also called αCD47
For B1, the binding result was “binds”.
